# This is one part of the list.
# B1: SRA-1 (Homo sapiens), P21757 (protein)
# chain: MEQWDHFHNQQEDTDSCSESVKFDARSMTALLPPNPKNSPSLQEKLKSFKAALIALYLLVFAVLIPLIGIVAAQLLKWETKNCSVSSTNANDITQSLTGKGNDSEEEMRFQEVFMEHMSNMEKRIQHILDMEANLMDTEHFQNFSMTTDQRFNDILLQLSTLFSSVQGHGNAIDEISKSLISLNTTLLDLQLNIENLNGKIQENTFKQQEEISKLEERVYNVSAEIMAMKEEQVHLEQEIKGEVKVLNNITNDLRLKDWEHSQTLRNITLIQGPPGPPGEKGDRGPTGESGPRGFPGPIGPPGLKGDRGAIGFPGSRGLPGYAGRPGNSGPKGQKGEKGSGNTLTPFTKVRLVGGSGPHEGRVEILHSGQWGTICDDRWEVRVGQVVCRSLGYPGVQAVHKAAHFGQGTGPIWLNEVFCFGRESSIEECKIRQWGTRACSHSEDAGVTCTL
# Key:
# Test in all cases: glycan array binding signal (z-score within array); higher = stronger binding
# Conditions in all cases: glycan notation: IUPAC condensed, linker removed
# [1] = target: Fuc(a1-2)[Gal(a1-3)]Gal(b1-4)[Fuc(a1-3)]GlcNAc(b1-3)GalNAc
# Outline: (§1)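 The Consortium for Functional Glycomics database supplied 3228 glycan arrays, of which those lacking an available protein sequence were dropped. The binding signal, a within-array Z-score, was averaged across arrays of the same protein sequence and across linkers. Negative scores can be read as non-binding.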
# [2] = target: Fuc(a1-2)[Gal(a1-4)]Gal(b1-4)GlcNAc
# Outline: as §1
# [3] = target: Fuc(a1-2)[GalNAc(a1-3)]Gal
# Outline: as §1
# [4] = target: Fuc(a1-2)[GalNAc(a1-3)]Gal(b1-3)GalNAc(a1-3)[Fuc(a1-2)]Gal(b1-4)GlcNAc
# Outline: as §1
# [5] = target: Fuc(a1-2)[GalNAc(a1-3)]Gal(b1-3)GalNAc(b1-3)Gal(a1-4)Gal(b1-4)Glc
# Outline: as §1
# [6] = target: Fuc(a1-2)[GalNAc(a1-3)]Gal(b1-3)GlcNAc
# Outline: as §1
# [7] = target: Fuc(a1-2)[GalNAc(a1-3)]Gal(b1-3)GlcNAc(b1-2)Man(a1-3)[Fuc(a1-2)[GalNAc(a1-3)]Gal(b1-3)GlcNAc(b1-2)Man(a1-6)]Man(b1-4)GlcNAc(b1-4)GlcNAc
# Outline: as §1
# [8] = target: Fuc(a1-2)[GalNAc(a1-3)]Gal(b1-3)GlcNAc(b1-2)Man(a1-3)[Fuc(a1-2)[GalNAc(a1-3)]Gal(b1-3)GlcNAc(b1-2)Man(a1-6)]Man(b1-4)GlcNAc(b1-4)[Fuc(a1-6)]GlcNAc
# Outline: as §1
# [9] = target: Fuc(a1-2)[GalNAc(a1-3)]Gal(b1-3)GlcNAc(b1-3)GalNAc
# Outline: as §1
# [10] = target: Fuc(a1-2)[GalNAc(a1-3)]Gal(b1-3)GlcNAc(b1-6)GalNAc
# Outline: as §1
# [11] = target: Fuc(a1-2)[GalNAc(a1-3)]Gal(b1-4)Glc
# Outline: as §1
# [12] = target: Fuc(a1-2)[GalNAc(a1-3)]Gal(b1-4)GlcNAc
# Outline: as §1
# [13] = target: Fuc(a1-2)[GalNAc(a1-3)]Gal(b1-4)GlcNAc(b1-2)Man
# Outline: as §1
# [14] = target: Fuc(a1-2)[GalNAc(a1-3)]Gal(b1-4)GlcNAc(b1-2)Man(a1-3)[Fuc(a1-2)[GalNAc(a1-3)]Gal(b1-4)GlcNAc(b1-2)Man(a1-6)]Man(b1-4)GlcNAc(b1-4)GlcNAc
# Outline: as §1
# [15] = target: Fuc(a1-2)[GalNAc(a1-3)]Gal(b1-4)GlcNAc(b1-2)Man(a1-3)[Fuc(a1-2)[GalNAc(a1-3)]Gal(b1-4)GlcNAc(b1-2)Man(a1-6)]Man(b1-4)GlcNAc(b1-4)[Fuc(a1-6)]GlcNAc
# Outline: as §1
# [16] = target: Fuc(a1-2)[GalNAc(a1-3)]Gal(b1-4)GlcNAc(b1-3)Gal(b1-4)GlcNAc
# Outline: as §1
# [17] = target: Fuc(a1-2)[GalNAc(a1-3)]Gal(b1-4)GlcNAc(b1-3)Gal(b1-4)GlcNAc(b1-3)Gal(b1-4)GlcNAc
# Outline: as §1
# [18] = target: Fuc(a1-2)[GalNAc(a1-3)]Gal(b1-4)GlcNAc(b1-3)GalNAc
# Outline: as §1
# [19] = target: Fuc(a1-2)[GalNAc(a1-3)]Gal(b1-4)GlcNAc(b1-3)[Fuc(a1-2)[GalNAc(a1-3)]Gal(b1-4)GlcNAc(b1-6)]GalNAc
# Outline: as §1
# [20] = target: Fuc(a1-2)[GalNAc(a1-3)]Gal(b1-4)GlcNAc(b1-6)GalNAc
# Outline: as §1
# [21] = target: Fuc(a1-2)[GalNAc(a1-3)]Gal(b1-4)[Fuc(a1-3)]GlcNAc
# Outline: as §1
# [22] = target: Fuc(a1-2)[GalNAc(a1-3)]Gal(b1-4)[Fuc(a1-3)]GlcNAc(b1-3)GalNAc
# Outline: as §1
# [23] = target: Fuc(a1-2)[GalNAc(a1-4)]Gal(b1-4)GlcNAc
# Outline: as §1
# [24] = target: Fuc(a1-2)[GalNAc(b1-3)]Gal
# Outline: as §1
# Fuc(a1-3)GlcNAc = target: Fuc(a1-3)GlcNAc
# Outline: as §1
# [25] = target: Fuc(a1-3)[Gal(b1-4)]Glc6S
# Outline: as §1
# [26] = target: Fuc(a1-3)[Gal(b1-4)]GlcNAc
# Outline: as §1
# [27] = target: Fuc(a1-3)[Gal(b1-4)]GlcNAc(b1-2)Man
# Outline: as §1
# [28] = target: Fuc(a1-3)[Gal(b1-4)]GlcNAc(b1-2)Man(a1-3)[Fuc(a1-3)[Gal(b1-4)]GlcNAc(b1-2)Man(a1-6)]Man(b1-4)GlcNAc(b1-4)GlcNAc
# Outline: as §1
# [29] = target: Fuc(a1-3)[Gal(b1-4)]GlcNAc(b1-2)Man(a1-3)[Fuc(a1-3)[Gal(b1-4)]GlcNAc(b1-2)Man(a1-6)]Man(b1-4)GlcNAc(b1-4)[Fuc(a1-6)]GlcNAc
# Outline: as §1
# [30] = target: Fuc(a1-3)[Gal(b1-4)]GlcNAc(b1-3)Gal(b1-3)[Fuc(a1-4)]GlcNAc
# Outline: as §1
# [31] = target: Fuc(a1-3)[Gal(b1-4)]GlcNAc(b1-3)Gal(b1-4)[Fuc(a1-3)]GlcNAc
# Outline: as §1
# [32] = target: Fuc(a1-3)[Gal(b1-4)]GlcNAc(b1-3)Gal(b1-4)[Fuc(a1-3)]GlcNAc(b1-3)Gal(b1-4)[Fuc(a1-3)]GlcNAc
# Outline: as §1
# [33] = target: Fuc(a1-3)[Gal(b1-4)]GlcNAc(b1-3)GalNAc
# Outline: as §1
# [34] = target: Fuc(a1-3)[Gal(b1-4)]GlcNAc(b1-6)GalNAc
# Outline: as §1
# [35] = target: Fuc(a1-3)[Gal(b1-4)]GlcNAc(b1-6)[Gal(b1-3)GlcNAc(b1-3)]Gal(b1-4)Glc
# Outline: as §1
# [36] = target: Fuc(a1-3)[Gal(b1-4)]GlcNAc6S
# Outline: as §1
# [37] = target: Fuc(a1-3)[Gal3S(b1-4)]Glc
# Outline: as §1
binder,measurement,setting,value
B1,glycan array binding signal (z-score),[1],-0.115
same,glycan array binding signal (z-score),[2],0.081
same,glycan array binding signal (z-score),[3],-0.218
same,glycan array binding signal (z-score),[4],-0.428
same,glycan array binding signal (z-score),[5],-0.415
same,glycan array binding signal (z-score),[6],-0.384
same,glycan array binding signal (z-score),[7],0.613
same,glycan array binding signal (z-score),[8],-0.338
same,glycan array binding signal (z-score),[9],-0.047
same,glycan array binding signal (z-score),[10],0
same,glycan array binding signal (z-score),[11],-0.333
same,glycan array binding signal (z-score),[12],-0.192
same,glycan array binding signal (z-score),[13],0.119
same,glycan array binding signal (z-score),[14],-0.626
same,glycan array binding signal (z-score),[15],0.761
same,glycan array binding signal (z-score),[16],-0.293
same,glycan array binding signal (z-score),[17],0.422
same,glycan array binding signal (z-score),[18],0.211
same,glycan array binding signal (z-score),[19],-0.401
same,glycan array binding signal (z-score),[20],-0.464
same,glycan array binding signal (z-score),[21],1.28
same,glycan array binding signal (z-score),[22],21.8
same,glycan array binding signal (z-score),[23],-0.165
same,glycan array binding signal (z-score),[24],-0.083
same,glycan array binding signal (z-score),Fuc(a1-3)GlcNAc,-0.062
same,glycan array binding signal (z-score),[25],1.43
same,glycan array binding signal (z-score),[26],-0.229
same,glycan array binding signal (z-score),[27],-0.487
same,glycan array binding signal (z-score),[28],-0.41
same,glycan array binding signal (z-score),[29],-0.398
same,glycan array binding signal (z-score),[30],-0.447
same,glycan array binding signal (z-score),[31],0.234
same,glycan array binding signal (z-score),[32],-0.172
same,glycan array binding signal (z-score),[33],-0.156
same,glycan array binding signal (z-score),[34],-0.092
same,glycan array binding signal (z-score),[35],-0.456
same,glycan array binding signal (z-score),[36],0.096
same,glycan array binding signal (z-score),[37],-0.075
